Reference: PubChem BioAssay AID1645882 (National Center for Advancing Translational Sciences (NCATS), 2021)
Among all 16,000 compounds or so, about 120 (0.75%) were called active. Inconclusive results (about 4%) are left out. The call rests on the fitted dose curve; in most records, active means well fitted inhibition curve with a large enough effect; inconclusive means small, poorly fitted or top-dose-only effect; inactive means no such curve, though single readings can be large or run the other way. Some of the results follow.

Target: Rap guanine nucleotide exchange factor 3 (Homo sapiens) (UniProt O95398)
UniProt O95398, sequence (O95398 whole entry, looked up): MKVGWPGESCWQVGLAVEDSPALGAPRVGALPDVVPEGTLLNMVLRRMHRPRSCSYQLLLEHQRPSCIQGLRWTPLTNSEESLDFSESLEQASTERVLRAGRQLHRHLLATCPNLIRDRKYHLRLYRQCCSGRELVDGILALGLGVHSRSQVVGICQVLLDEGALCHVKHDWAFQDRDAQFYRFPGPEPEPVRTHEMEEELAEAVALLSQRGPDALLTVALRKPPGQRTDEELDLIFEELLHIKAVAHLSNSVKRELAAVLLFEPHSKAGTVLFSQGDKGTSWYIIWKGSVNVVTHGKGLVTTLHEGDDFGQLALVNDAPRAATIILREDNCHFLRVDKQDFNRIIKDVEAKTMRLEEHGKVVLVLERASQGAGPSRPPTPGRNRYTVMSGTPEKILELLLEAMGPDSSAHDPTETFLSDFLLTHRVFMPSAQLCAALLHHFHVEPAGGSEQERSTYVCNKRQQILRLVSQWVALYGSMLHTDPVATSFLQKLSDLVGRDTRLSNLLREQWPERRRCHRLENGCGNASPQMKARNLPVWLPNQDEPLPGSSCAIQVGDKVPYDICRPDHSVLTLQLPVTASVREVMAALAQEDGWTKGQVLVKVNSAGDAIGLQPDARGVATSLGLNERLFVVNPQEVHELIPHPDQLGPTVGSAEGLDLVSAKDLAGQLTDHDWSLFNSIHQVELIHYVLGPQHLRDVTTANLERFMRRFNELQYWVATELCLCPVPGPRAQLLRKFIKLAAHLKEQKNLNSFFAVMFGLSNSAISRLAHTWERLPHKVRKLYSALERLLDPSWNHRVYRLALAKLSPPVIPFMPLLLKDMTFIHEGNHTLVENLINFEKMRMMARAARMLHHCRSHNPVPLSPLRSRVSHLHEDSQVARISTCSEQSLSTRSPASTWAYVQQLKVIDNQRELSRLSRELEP
Experiment: Validation qHTS for antagonist of cAMP-regulated guanine nucleotide exchange factor 3 (EPAC1);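 further: plate controls were DMSO for no effect and ATA control for full effect; nearly all actives have a fitted effect of over 75% in size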
Conditions: EPAC1 Rap1B-BODIPY-GDP exchange, fluorescence; series mostly up to 150 µM; activity change, negative = inhibition: at the top concentration
Outline: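 EPAC1 (100 nM) mixed with 250 nM RAP1B-BODIPY-GDP and 50 uM GDP; compounds in concentration series, 5 min at room temperature. Fluorescence (ex 480/em 540 nm) read every 5 min for 30 min; normalized to ATA control and DMSO.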

Activity change, negative = inhibition, inactive:
CN1CCCCCC1C(=O)NCC1Cc2cc(-c3cnccn3)ccc2O1 (stereo not drawn) 11.4%
COC(=O)c1c(C)[nH]c(C)c1C(=O)c1ccccc1Cc1ccccc1
Cc1ccc(CN2C[C@H](Sc3ccccn3)C[C@H]2C(=O)Nc2ccc3sc(C)nc3c2)s1 12.8%
CC(C)CN1CCC2(CC1)CCN(C(=O)c1ccco1)CC2 16.5%
CN(CCO)C(=O)c1cn(C2CCN(Cc3cccc(C(F)(F)F)c3)CC2)nn1 11.4%
Cc1ccc2oc(-c3ccccc3)c(O)c(=O)c2c1 4.29%
O=C(c1ccco1)N(Cc1cc2cc3c(cc2nc1N1CCOCC1)CCC3)CC1CCCO1 (stereo not drawn) -0.969%
C=C[C@@H]1c2ccccc2N(S(=O)(=O)c2ccc(C)cc2)[C@H](c2ccccc2C(F)(F)F)C1(C#N)C#N -16.5%
COc1ccc(NC(=O)N2CCCC3(CCN(C(=O)c4ccco4)CC3)C2)cc1 14.3%
COc1cc(C(O)CO)ccc1OS(=O)(=O)O (stereo not drawn) -4.2% [at 75.8 µM]
Cc1noc(C)c1-c1nccc(NCc2ccccc2)n1 -5.26%
Cc1cc(-c2ccnc(-n3ncc(C(=O)NCc4cccnc4)c3C3CC3)n2)c(C)s1 14.2%
C[C@H](CCC(=O)NCC(=O)O)C1CC[C@H]2[C@H]3C(C[C@H](O)[C@]12C)[C@@]1(C)CC[C@@H](O)C[C@H]1C[C@H]3O (stereo partly drawn) 22.3%
CC(=O)Nc1ccccc1C(=O)C(=O)O 12.2%
Fc1ccc([C@H]2CCNCC2COc2ccc3c(c2)OCO3)cc1 (stereo partly drawn) 3.4%
Cc1ccnc2c(O)cccc12 25.5%
O=C(Nc1ccccc1)N[C@H]1C[C@H](C(=O)O)Nc2cc(Cl)cc(Cl)c21 10.4%
O=C1c2c(O)ccc(O)c2C(=O)c2c(NCCNCCO)ccc(NCCNCCO)c21
COc1cc(CN2C(=O)CC[C@@H]3CN(Cc4ccccn4)CC[C@@H]32)cc(OC)c1OC 0.0038%
Cc1[nH]c2ccccc2c1/C=C/c1ccc2ccccc2n1 1.66%
N#Cc1cccc(NC(=O)N2CCC3(CC2)CCN(C(=O)c2csnn2)CC3)c1 13%
COCCn1c(=O)c(-c2ccccc2)nc2cnc(N3CCNCC3)nc21 13.9%
CC(C(=O)O)c1ccc(C2CCCCC2)c2ccccc12 (stereo not drawn) 28.7%
CC(=O)O[C@H]1C[C@@H]2CC[C@@H]3[C@H](CC[C@@]4(C)[C@H]3C[C@H]([N+]3(C)CCCCC3)[C@@H]4OC(C)=O)[C@@]2(C)C[C@@H]1[N+]1(C)CCCCC1
Cc1noc(C)c1C(=O)N1CCC2(CCCN(c3ccccn3)C2)CC1 1.18%
COCC(=O)N1CCC[C@@]2(CCN(Cc3ccccc3OC)C2)C1 3.59%
CN(C)c1ncc2ncc(=O)n(C[C@H]3CCCO3)c2n1 0.28%
COc1cc(O)c(C(=O)O)c(O)c1 19.4%
O=C(NCCc1nnc2n1CCN(Cc1c(F)cccc1F)CC2)c1ccco1 7.46%
CC(=O)[C@H]1CC[C@H]2[C@@H]3C=CC4=CC(=O)CC[C@@]4(C)[C@H]3CC[C@]12C 4.08% [at 75.8 µM]
CCOC(=O)C1=C(C)NC(C)=C(C(=O)OC)C1c1cccc(Cl)c1Cl (stereo not drawn)
COCc1c(C(=O)NC2CCCCCC2)cnn1-c1nccc(-c2cc(C)sc2C)n1 -10.8%
C[C@H](CCC(=O)O)[C@H]1CC[C@H]2[C@@H]3C(=O)C[C@@H]4CC(=O)CC[C@]4(C)[C@H]3CC(=O)[C@]12C 10.4%
COc1cccc(Nc2ncc3nc(CCc4ccccc4)c(=O)n(C)c3n2)c1 27.7%
Cc1nc2sccn2c(=O)c1CCN1CCC(=C(c2ccc(F)cc2)c2ccc(F)cc2)CC1
CO[C@H]1C[C@H](O[C@@H]2/C(C)=C/C[C@@H]3C[C@@H](C[C@]4(CC[C@H](C)[C@@H](C5CCCCC5)O4)O3)OC(=O)[C@@H]3C=C(C)/C(=N/O)[C@H]4OC/C(=C\C=C\[C@@H]2C)[C@]43O)O[C@@H](C)[C@@H]1O -2.21%
Cc1cnc(CNc2ncnc3ccc(-c4c(C)noc4C)cc23)cn1 7.59%
COCCNc1ncnc2ccc(-c3ccccc3OC)cc12 25.3%
OC[C@H]1O[C@H](n2cnc3c(N[C@H]4CCC[C@@H]4O)ncnc32)[C@H](O)[C@@H]1O 20.1% [at 75.8 µM]
COc1ccc(NC(=O)N2CCCC3(CCN(C(=O)c4cccc(F)c4)CC3)C2)cc1 12.8%
CC(C)(C)NC[C@H](O)COc1cccc2c1CCCC2=O 13.3% [at 75.8 µM]
CCNc1ncc2nc(-c3ccc(Cl)cc3)c(=O)n(-c3ccccc3)c2n1 20.1%
C[N+](C)(C)CCOC(N)=O
COc1ccc(OC)c(CN2CCC3(CCC(CNC(=O)c4ccco4)O3)CC2)c1 (stereo not drawn) 13.7%
CN1[C@@H]2CC(OC(=O)[C@H](CO)c3ccccc3)C[C@@H]1[C@H]1O[C@H]12 (stereo partly drawn) 13.2%
COCC(=O)N1CCC2(CCCN(c3ncccn3)C2)CC1 8.37%
Nc1ncn(C2OC(CO)C(O)C2O)c(=O)n1 (stereo not drawn) 7.41%
C=C1[C@@H]2CC[C@@H](C2)C1(C)C 21.3%
COC1[C@@H](O[C@@H]2O[C@H](C)[C@@H](O[C@H]3C[C@@](C)(O)[C@H](OC(=O)CC(C)C)[C@H](C)O3)[C@H](N(C)C)[C@H]2O)[C@@H](CC=O)C[C@@H](C)[C@@H](O)/C=C/C=C/C[C@@H](C)OC(=O)C[C@H]1OC(C)=O (stereo partly drawn) 13.8% [at 75.8 µM]
COc1cc2nc(N(C)C)c(CNC3CCOC(C)(C)C3)cc2c(OC)c1OC (stereo not drawn) 15.1%
O=C(NCc1nnc2n1CCN(Cc1cc3c(cc1Cl)OCO3)CC2)C1CCOC1 (stereo not drawn) 15.8%
O=c1c(-c2cc(F)cc(F)c2)nc2cnc(Nc3ccccc3)nc2n1C[C@H]1CCCO1 17.7%
CC(=O)Nc1ccc(OC[C@@H](O)CNC(C)C)cc1 15%
O=C(NC(Cc1cc(=O)[nH]c2ccccc12)C(=O)O)c1ccc(Cl)cc1 (stereo not drawn) 12.1%
COc1cc(O)cc(OC)c1OC -5.52%
CCN1C(=O)C=CC1=O 1.06% [at 75.8 µM]
CC(C)CN1CCC(=O)N([C@H](CO)c2ccccc2)CC1 16.5%
Cc1noc(C)c1-c1ccc2ncnc(NCc3cccnc3)c2c1 1.79%
CC[C@]12CCCN3CCc4c(n(c5ccccc45)C(=O)C1)[C@H]32 0.314%
O=c1c(-c2cc(F)cc(F)c2)nc2cncnc2n1Cc1ccccc1 -6.84%
CS(=O)(=O)N1CCC2(CC1)CN(c1ccncc1)C2 7.42%
COc1ccc2c(c1)NC(=O)C2CC(=O)N1CCOc2c(cc(-c3cnc4ccccc4c3)cc2OC)C1 (stereo not drawn) 5.78%
CC(CNC(=O)c1cccnc1)NC(=O)c1cccnc1 (stereo not drawn) 14.6%
CC(C)C1=CC2=CCC3[C@@](C)(CCC[C@@]3(C)C(=O)O)C2CC1 (stereo partly drawn) -20.2%
CC(C)SC(=N)N 9.66%
O=C(C[n+]1ccccc1Cl)c1cccc([N+](=O)[O-])c1 -5.74%
COc1ccccc1-c1ccnc(-n2ncc(C(=O)N[C@H]3CCCCNC3=O)c2C2CC2)n1 16.1%
CC(=O)N1CCC2(CC1)CCN(c1ccc(-c3ccccc3)cc1)CC2 -3.35%
CN(C)CCc1c[nH]c2ccc(CS(=O)(=O)N3CCCC3)cc12 20.4%
c1cncc(-c2nccc(-n3ccnc3)n2)c1 28.7%
Cc1ncc2c(c1CNC(=O)c1cncs1)CCN(C(=O)c1ccc(-c3ccccc3)cc1)C2 -1.15%
CCC1OC(=O)C(C)[C@@H](O[C@H]2C[C@@](C)(OC)C(O)C(C)O2)C(C)[C@@H](O[C@@H]2OC(C)CC(N(C)C)C2O)[C@](C)(O)CC(C)/C(=N\OCOCCOC)[C@H](C)C(O)[C@]1(C)O (stereo partly drawn) 28.7%
COc1ccccc1CC(=O)NCC1Cc2cc(F)cc(-c3cncnc3)c2O1 (stereo not drawn) 1.96%
CN1CCN2c3ccccc3Cc3ccccc3C2C1 (stereo not drawn)
CN(C)C(=O)c1ccc(-c2ccc3ncnc(N4CCC(C(=O)O)CC4)c3c2)cc1 7.66%
COC1OC2COC(c3ccccc3)OC2C(O)C1O (stereo not drawn) -11.9%
O=C(c1ccco1)N1CCC[C@@]2(CCN(C(c3ccccc3)c3ccccc3)C2)C1 17.2%
CN(C)C(=O)CCC(=O)NCC1Cc2cccc(-c3ccccc3C(F)(F)F)c2O1 (stereo not drawn) 15.1%
CCCCCCCCOc1ccccc1C(=O)Nc1ccc(C(=O)OCC[N+](C)(CC)CC)cc1 8.75%
COc1ccc(C(=O)N2CCC3(CCCN(C(=O)Nc4cccc(F)c4)C3)CC2)cc1 17.7%
N[C@@H](Cc1ccc(O)c(O)c1)C(=O)O
O=C1NC2CCCCN2C12CCN(CCCN1c3ccccc3CCc3ccc(Cl)cc31)CC2 (stereo not drawn) -19.3%
CC(=O)Nc1cc(C(=O)N2CCCC(C)C2)cc2ncn(CCc3ccccn3)c12 (stereo not drawn) 13%
C[C@@H]1[C@H](c2ccccc2)OCCS(=O)(=O)N1Cc1ccccc1F -0.958%
CCCCc1ncc(/C=C(\Cc2cccs2)C(=O)O)n1Cc1ccc(C(=O)O)cc1 16.3%
CCC(C)C(NC)C(=O)O (stereo not drawn) 13.8%
O=C1NC(=O)C(Cc2ccccc2F)(C2CCN(Cc3cccn3-c3cccnc3)CC2)N1 (stereo not drawn) 13.9%
Cc1ccc(C2(O)CCN(CCCC(=O)c3ccc(F)cc3)CC2)cc1 26.2%
COc1ccc(/C=C/C(=O)O)cc1 8.37%
O=C(c1cnccn1)N1CCC2(CC1)CN(c1cccc(-c3ccccc3)c1)C2 1.31%
COc1ccc(-c2coc3cc(O)ccc3c2=O)c(OC)c1 6.84%
Cc1cc(-c2cc(F)cc3c2OC(CNC(=O)CCn2cncn2)C3)ccc1F (stereo not drawn) 6.14%
COc1ccc(C(=O)N2CCC[C@@]3(CCN(c4ccncc4)C3)C2)cc1 1.63%
O=C(O)CCC(=O)c1ccc(-c2ccccc2)cc1
COc1cc(=O)n2c(c1C(=O)NC(C)c1ccco1)CCN(Cc1ccc3nsnc3c1)CC2 (stereo not drawn) 12.4%
CCNc1ncc2nc(-c3cc(F)cc(F)c3)c(=O)n(C)c2n1 20.7%
COc1ccc(CN2Cc3cccc4c3[C@@H](CC2=O)[C@H](O)[C@H](O)C4)cc1 -14.4%
O=c1cc(N2CCOCC2)oc2c(-c3ccccc3)cccc12
